This is one part of the list.
B1: 80654953_80657498_2791_CDS_ENSMUSG00000035051_ENSMUST00000038166|mouse|control|control (ssRNA)
RNA: GGGAGUUCUACAGUCCGACGAUCUUCUGCCAGCCCUGGUAAGAACACAAGGACAGCGCCUGGAGGGUAGGCGUGCUUGCCGUCUACAAUCCACUCUAACAAGGCCUCUAUUAGUUCAAGGUUGACCUUUUCAAAAUCCAUCACCAACAGAGGAUUGAGCAUCA
B2: chr2:216981417:216981418:+_ENSG00000079246_ENST00000392132|hu_hu|hu_hu_hu_mus_True|1_48 (ssRNA)
RNA: GGGAGUUCUACAGUCCGACGAUCCUGAUACUGGUCCUUGCCAGCAAGGGCAUUAUCAGUGCCAUCUGUGCCAUAGAGGACUAACGCAAUCUCAUCCUUGCUCUCCGAAAAUACCUGUCGUUGGACAAACAUAGUCAUCACCUUCAACAGAGGAUUGAGCAUCA
B3: chr2:37325018:37325019:+_ENSMUSG00000035437_ENSMUST00000112920|perfect_dup|motif|central (ssRNA)
RNA: GGGAGUUCUACAGUCCGACGAUCAUUAUUUGUAGAUGGUGUCUCAUCUCCUUGCCUGGAAACCAAGACAAAAUCUUCACGGUUAAGAGUAGACACUGAGUCUGAUGAGACACUGAUUUUUCCAACAGAGGCCUUGUCAUCCAUCAACAGAGGAUUGAGCAUCA
B4: chr2:17927185:17927186:-_ENSG00000163029_ENST00000351948|hu_hu|FALSE|FALSE (ssRNA)
RNA: GGGAGUUCUACAGUCCGACGAUCUUUAUCAAAAUCCUCCAAUUCUUCUUGUCUUGGCCUUUUGGCAUUUUUAGGAGAGGAAAAAUUUUCUUCCUUUCUUUUGGCCAUCAGGUCGCCAACAAGUCGAAGUCUCCCAAAGGAACCCAACAGAGGAUUGAGCAUCA
B5: chr7:36427155:36427156:-_ENSMUSG00000030417_ENSMUST00000118501|mus_hu|motif|central (ssRNA)
RNA: GGGAGUUCUACAGUCCGACGAUCACAAAGUAAAUAAUCAGAUCUUAACUUCUGUCCUAGACUUGUUCCGUUAAGUUCGGGUCUGUGAGCACUUGUAGUUCAAUAAUCGUCAUCUUCAUCAGAGUCCAUUACUUUUCUUCUGUUCAACAGAGGAUUGAGCAUCA
B6: chr17:79190952:79190953:-_ENSMUSG00000039414_ENSMUST00000097281|mus_hu|FALSE|FALSE (ssRNA)
RNA: GGGAGUUCUACAGUCCGACGAUCGCUAUGAUCAGUUGCAGCCAUGAAUGCCAUGCGAAUGAGGUCAGAGAGAUGAAGUACCAAGAGGUCAUUUGUAGGGUUUCGAAGUUUAGCAGAACGUGCCAAGGCAAGAUCAAAGUGAGCCAACAGAGGAUUGAGCAUCA
B7: chr1:182352875:182352876:-_ENSG00000135821_ENST00000339526|hu_hu|motif|central (ssRNA)
RNA: GGGAGUUCUACAGUCCGACGAUCCAUAAUCCACAAAACCAUACAUAUAGUUUUUUGUCUUUACAUUUAAAUAUAAAAAUACGGUUCUGCUUUGUGUGAUAAAUCAAGGACCAAGCAGUAAGAACCUUUUCUUCUUUCAAGGUACAACAGAGGAUUGAGCAUCA
B8: chr4:108954403:108954404:+_ENSG00000138796_ENST00000309522|hu_hu|FALSE|FALSE (ssRNA)
RNA: GGGAGUUCUACAGUCCGACGAUCAGUAUCCAGUCCGACAUAAUCUAGAAGCUCAAAUGGGCCCAUGGGGUAACCGGCUCCUAAUUUCAUAGCAGUGUCAAUGUCUUCUUUGGAUGCGUCACCUCGUUCAUACAGCCUGAUUGCCAACAGAGGAUUGAGCAUCA
B9: chr8:117878989:117878990:-_ENSG00000164754_ENST00000297338|hu_hu|hu_hu_hu_mus_True|18_98 (ssRNA)
RNA: GGGAGUUCUACAGUCCGACGAUCCCAGAGGCCCUCGUUUACUGAGAACAAAAUGUGCGUAGAACAUUUUUCUUAUUUGCUAUGAAAUAAGAAGAAACCUGGAUCUCGGCGGGGAGCUUGGGCGGGCGGGUGGCCCGGGGAGGGCAACAGAGGAUUGAGCAUCA
B10: chr10:112361861:112361862:+_ENSG00000108055_ENST00000361804|hu_hu|FALSE|FALSE (ssRNA)
RNA: GGGAGUUCUACAGUCCGACGAUCAAUAGCUUCAUAUUUCCGAAGUUCAAGUACAUUCAUCAGUUCCAUGAUUGAUUUGUAACCCCUAUCUAACUCUUCUUGACGCUUUAUUAACUUUUCUUUCUGCUCGGAGAAAUUUACAAACAACAGAGGAUUGAGCAUCA
B11: chr12:4461469:4461470:+_ENSG00000078237_ENST00000179259|hu_hu|FALSE|FALSE (ssRNA)
RNA: GGGAGUUCUACAGUCCGACGAUCCUGUUCUUUUUGAUCCGCUUCUUUCAGGAUUAGUUGACAAAGAAAUUCAAAAAAGUCUAUUCCACGCAUUUUCACCUGGUCCAGCGUCUCUCCUCCGGGCGGUGUAAACACAGGGCACUCCAACAGAGGAUUGAGCAUCA
B12: chr2:169732673:169732674:-_ENSG00000152253_ENST00000282074|hu_hu|FALSE|FALSE (ssRNA)
RNA: GGGAGUUCUACAGUCCGACGAUCAUACAAGUCUGCAGAUUUCUGCAGCCUUUUCAACCUCUCUGCAUUCGCUUUAUUAGCAGUAGAAAUAGUUUCCUUCUUCCUAGAAUAUUCUUCCUUAAGAUCCUGGAUAUUUGCAGUCAGCAACAGAGGAUUGAGCAUCA
B13: chr3:10015032:10015033:+_ENSMUSG00000027533_ENSMUST00000029046|mus_mus|mus_mus_mus_hu_True|48_98 (ssRNA)
RNA: GGGAGUUCUACAGUCCGACGAUCGUUUUUACCAUCACACGUAAUGAUACAAUCUGGCUUGGCCAUUGCGCCCAUUUUUCGCAAAGCCAGUCCUACUCCUAGCUCCUUCAUGUAUUCAUCAAAGCCUUUGCUGUCCACCAGGCGCAACAGAGGAUUGAGCAUCA
B14: 46722910_46723030_89_CDS_ENSG00000069329_ENST00000568784|human|control|control (ssRNA)
RNA: GGGAGUUCUACAGUCCGACGAUCCCAAAUCGGGCUGGUCUUAAUCCCGAACGGUCUGUGGGGCCCCUUCUCCACUCGCUGGAGUGCGGGGCGGUGGGAGAGAGCAGGGGCUACAAGGAGGGUCGACCCAGGUGCCACUGCCCCCAACAGAGGAUUGAGCAUCA
B15: chr3:179287964:179287965:+_ENSG00000136518_ENST00000429709|hu_hu|hu_hu_hu_mus_True|18_58 (ssRNA)
RNA: GGGAGUUCUACAGUCCGACGAUCCUUGAGUGGUGAGAUGGCCUCCAUGUUCUCCCUGGGCACGCGGAGGGCAUUGGUAUCUAUGUAGUAGGUGGGCCCGCCCUGCUUGCCUUUGUCGCCAUCUAUUUCCAUCAUUGUACUUCCCAACAGAGGAUUGAGCAUCA
B16: chr6:41757443:41757444:+_ENSG00000214736_ENST00000398881|hu_mus|hu_hu_hu_mus_False|58_68 (ssRNA)
RNA: GGGAGUUCUACAGUCCGACGAUCGAACCGUGCAGAGGCAACAUCUCAGCCGACACUGGGGGAUGGGGGAACAAAAGGAAACUAGGCAGGCAAGGAGAGGGAGUCAACUUCAGCUGCCACUCAGGUAGGAUCUUGUGGUCACAGCAACAGAGGAUUGAGCAUCA
B17: chrX:101156880:101156881:-_ENSMUSG00000056537_ENSMUST00000070705|mus_mus|motif|central (ssRNA)
RNA: GGGAGUUCUACAGUCCGACGAUCGAAUAUGGUCCAUUCUUCAGGGCCGUUUUCUUCACCAUCAUGUAUCACUUCCUGCCGGAAUCCAAGUUAAAAUACAUGCUCUCCAUUGGUCUUCAAUGCAGCUGGGUUCUGCACGGUCCUCAACAGAGGAUUGAGCAUCA
B18: chr5:67446008:67446009:+_ENSMUSG00000037736_ENSMUST00000038188|mus_hu|motif|central (ssRNA)
RNA: GGGAGUUCUACAGUCCGACGAUCUACCUCCAAAGGUAAGUAACACAAAUGUUUCAGGAUUACAGUAUAUAUUAUCAAACGGGUGUCUUUGCAUUAAAAACAAAUUAUAGCUCAGAGAUAGAGCUUGCUGUGAUGUUUAGUUUCCAACAGAGGAUUGAGCAUCA
B19: chr1:220276048:220276049:+_ENSG00000067704_ENST00000302637|hu_hu|hu_hu_hu_mus_True|38_48 (ssRNA)
RNA: GGGAGUUCUACAGUCCGACGAUCGCAAAUUGCCUGGUUGGCGGGAAUUGUCCAAGGCUGGGUGGUCCAAACUAAAACGCUAACAGGAGAUGAACCAUCUAUAAGAGACUCCAACUUCGGAGGAGGUCUCAGGAGGGGGAAUCUCAACAGAGGAUUGAGCAUCA
B20: chr17:74699132:74699133:-_ENSMUSG00000024067_ENSMUST00000112571|perfect_dup|motif|central (ssRNA)
RNA: GGGAGUUCUACAGUCCGACGAUCCCCAUUAAGUCAGUUUCGAUCUUCAAACUGUGCCUUGUUUUUUAAAAGAUAAGAUGCGGGAAAUUCAAUGGGAUUUGGUGGUCUUUCCUUUGCAAGCACAGCAAGUCCCUGUAAUAAGAUCAACAGAGGAUUGAGCAUCA
B21: chr9:66794652:66794653:+_ENSMUSG00000036781_ENSMUST00000040917|mus_mus|FALSE|FALSE (ssRNA)
RNA: GGGAGUUCUACAGUCCGACGAUCCUGAACCAGCCGUUUCUUCUUAUGUUUUUUCUUCUCCUCCUCCAAGGAAGGGUGUAACAGAUCUCUAGCCAGGGGCAUGGUGACGGCUCCGCAAGCGCGGCCGCUCCAGGUCGCCGAGACCAACAGAGGAUUGAGCAUCA
B22: 99513462_99515842_1760_3pUTR_ENSMUSG00000041685_ENSMUST00000040340|mouse|control|control (ssRNA)
RNA: GGGAGUUCUACAGUCCGACGAUCGUUGGAAGUUACAGGUGGGCUGAAUGGCCUGGGUAUUUCAUUGAUCCCACUCAGUUUUCCUGAAGCAAGCUUUGGUCUGGAAGCAGGCCUUGGAGGUGGAACAAGGGUGCCUAAAGAGAGCAACAGAGGAUUGAGCAUCA

target: T1, UNK ZnF1-3 (human, UniProt Q9C0B0 31-174); test: nsRBNS (natural sequence RNA bind-n-seq); RBNS binding buffer (assumed for nsRBNS): 25 mM Tris pH 7.5, 150 mM KCl, 3 mM MgCl2, 0.01% Triton X-100, 500 ug/ml BSA, 20 U/ml SUPERase-In, 4 C; UNK is unkempt and MSI1 is Musashi-1; names of the RNAs are library labels; protein concentration not given here; high values mean tight binding
T1 sequence: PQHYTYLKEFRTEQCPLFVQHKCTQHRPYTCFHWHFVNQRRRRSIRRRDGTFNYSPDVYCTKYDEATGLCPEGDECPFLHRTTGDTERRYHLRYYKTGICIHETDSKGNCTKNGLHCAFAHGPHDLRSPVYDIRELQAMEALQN

Point of comparison: B1, binding signal 0.829 enrichment R. Against it:
- B2 — lower, 0.735 enrichment R
- B3 — lower, 0.558 enrichment R
- B4 — lower, 0.383 enrichment R
- B5 — lower, 0.749 enrichment R
- B6 — higher, 1.38 enrichment R
- B7 — lower, 0.807 enrichment R
- B8 — higher, 1.41 enrichment R
- B9 — higher, 1.03 enrichment R
- B10 — lower, 0.658 enrichment R
- B11 — higher, 0.93 enrichment R
- B12 — lower, 0.483 enrichment R
- B13 — lower, 0.695 enrichment R
- B14 — lower, 0.801 enrichment R
- B15 — lower, 0.584 enrichment R
- B16 — higher, 2.4 enrichment R
- B17 — lower, 0.554 enrichment R
- B18 — higher, 0.937 enrichment R
- B19 — higher, 1.44 enrichment R
- B20 — higher, 0.979 enrichment R
- B21 — higher, 0.951 enrichment R
- B22 — higher, 1.49 enrichment R
